The campaign covered roughly 310,000 compounds. About 2,200 (0.71%) showed an effect of 50% or more. The effect is printed as a negative number. The list shows a part of the results.
The compounds below were run against human ether-à-go-go-related gene (hERG) potassium channel (human, UniProt Q12809) (assay: primary screen, population patch clamp on CHO cells stably expressing hERG).
human ether-à-go-go-related gene (hERG) potassium channel, sequence (Q12809 whole entry, looked up): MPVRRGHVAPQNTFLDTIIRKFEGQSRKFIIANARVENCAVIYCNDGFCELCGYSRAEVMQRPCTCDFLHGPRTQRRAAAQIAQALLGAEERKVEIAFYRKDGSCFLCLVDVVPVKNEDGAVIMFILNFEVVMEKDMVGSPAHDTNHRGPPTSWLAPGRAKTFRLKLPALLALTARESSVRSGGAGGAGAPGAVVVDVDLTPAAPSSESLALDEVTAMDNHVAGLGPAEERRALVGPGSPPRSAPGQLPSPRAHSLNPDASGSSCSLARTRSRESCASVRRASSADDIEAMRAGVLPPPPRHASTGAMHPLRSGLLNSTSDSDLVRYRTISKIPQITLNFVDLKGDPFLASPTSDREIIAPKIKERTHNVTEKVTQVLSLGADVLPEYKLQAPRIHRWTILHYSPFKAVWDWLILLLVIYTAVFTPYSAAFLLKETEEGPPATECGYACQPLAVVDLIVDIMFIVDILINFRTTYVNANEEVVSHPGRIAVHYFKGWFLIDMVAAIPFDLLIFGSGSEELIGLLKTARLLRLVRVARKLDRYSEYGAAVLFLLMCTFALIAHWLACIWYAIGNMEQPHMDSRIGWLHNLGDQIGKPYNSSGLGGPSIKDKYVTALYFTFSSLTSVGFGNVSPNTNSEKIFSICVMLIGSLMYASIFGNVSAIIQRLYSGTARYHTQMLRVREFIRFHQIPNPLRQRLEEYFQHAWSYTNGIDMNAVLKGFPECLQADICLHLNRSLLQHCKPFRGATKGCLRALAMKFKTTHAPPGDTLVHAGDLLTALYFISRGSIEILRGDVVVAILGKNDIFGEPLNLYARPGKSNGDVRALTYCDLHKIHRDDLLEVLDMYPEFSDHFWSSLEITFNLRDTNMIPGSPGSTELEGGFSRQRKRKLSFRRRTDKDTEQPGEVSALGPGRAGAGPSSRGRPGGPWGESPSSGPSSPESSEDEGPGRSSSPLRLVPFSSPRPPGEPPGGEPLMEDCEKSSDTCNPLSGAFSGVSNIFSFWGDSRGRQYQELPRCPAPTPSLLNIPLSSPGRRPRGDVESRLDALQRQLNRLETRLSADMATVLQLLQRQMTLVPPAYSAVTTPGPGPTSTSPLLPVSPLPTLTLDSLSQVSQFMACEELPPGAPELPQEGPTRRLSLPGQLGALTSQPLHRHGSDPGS

| SMILES | hERG current change (%, negative = inhibition) at 1uM [%] |
| --- | --- |
| O=C(Oc1coc(CSc2ncccn2)cc1=O)c1ccccc1[N+](=O)[O-] | 8.37 |
| CC1=NN(C(N)=S)C(=O)C1N=Nc1cccc2ccccc12 (stereo not shown) | 14.8 |
| COc1cc2c(cc1OC)CN(Cc1cc(=O)oc3cc(C)c(C)cc13)CC2 | 5.04 |
| Cc1cc(C)cc(C(=O)NCc2ccc3c(c2)OCO3)c1 | 20.2 |
| Cc1ccccc1C1=NC(c2ccc(F)cc2F)ON1 (stereo not shown) | 3.67 |
| CCCc1cc(=O)oc2cc(OCC(=O)NCc3ccccn3)ccc12 | 6.97 |
| Cc1ccc(S(=O)(=O)N2CCOCC2)cc1C(=O)NCc1ccc2c(c1)OCO2 | -10.5 |
| COC(=O)c1cnn2c(C)c(Cc3cccc(F)c3)c(C)nc12 | -2.55 |
| COc1ccc(-n2c(C)nc3c(cnn3-c3ccc(Cl)cc3)c2=O)cc1 | 4.71 |
| O=C(Nc1ccccc1NS(=O)(=O)c1ccc(F)cc1)C1CCC1 | 6.43 |
| O=C(CCCCCN1C(=O)[C@@H]2Cc3ccccc3CN2C1=O)Nc1ccccc1Cl | 11.6 |
| CS(=O)(=O)N1CCc2cc(C(=O)N3CCN(c4ccccc4)CC3)ccc21 | 11.1 |
| O=C(c1ccc(S(=O)(=O)N2CCOCC2)cc1)N1CCN(c2ccccc2)CC1 | -18.9 |
| CN=Cc1sc2ccccc2c1O | 6.91 |
| CCOc1ccc(NC(=S)N(C)C)cc1 | 10.7 |
| Cc1nn(CC(=O)NCCc2cccs2)c(=O)c2nn(-c3ccccc3)c(C)c12 | 5.68 |
| COc1ccccc1N1CCN(C(=O)C2CCN(S(=O)(=O)c3ccc(Cl)cc3)CC2)CC1 | 3.28 |
| Cc1nc2ccc(C(=O)Nc3cccc([N+](=O)[O-])c3)cc2s1 | 1.56 |
| Cc1ccsc1C(=O)OCc1nc2ccccc2c(=O)[nH]1 | 3.28 |
| Cc1nn(-c2ccccc2)c(N2CCCC2)c1C=O | 9.02 |
| COc1ccc(NC(=O)CN(C)C(=O)c2cccc(S(=O)(=O)N3CC4(C)CC3CC(C)(C)C4)c2)cc1 (stereo not shown) | 9.37 |
| CCCCn1nc(C)c(C(=O)O)c1Cl | 15.8 |
| COc1ccc(Cl)cc1N(CC(=O)N1CCN(Cc2ccccc2)CC1)S(C)(=O)=O | 0.337 |
| Nc1cccc2c1C(=O)N(C(=O)c1cccc(S(=O)(=O)N3CCCC3)c1)C2=O | 12.5 |
| CCOC(=O)C1=CC[C@]2(C)c3c(c4ccccc4n3C)C(=O)C1N2C | 14.1 |
| Cc1ccc(OCC(=O)N(Cc2cccc(F)c2)C2CCS(=O)(=O)C2)cc1 (stereo not shown) | 4.55 |
| COc1ccc(N(CC(=O)NCCc2ccccc2)C(=O)c2csnn2)cc1OC | 15.1 |
| CCC(NC(=O)CCc1c(C)c2cc3c(-c4ccccc4)coc3cc2oc1=O)C(=O)O (stereo not shown) | 12.5 |

| SMILES | hERG current change (%, negative = inhibition) at 1uM [%] |
| --- | --- |
| Br.Cc1c(-c2ccc(O)cc2)nc2nc(-c3ccccc3)c(-c3ccccc3)nn12 | 13.3 |
| CSc1sc(C)cc1C1C(C#N)=C(N)N(c2cccnc2)C2=C1C(=O)CCC2 (stereo not shown) | 3.44 |
| COc1ccccc1-n1cnnc1SCC(=O)Nc1ncc(Cl)cc1Cl | 13.5 |
| CCOC(=O)C1=C(CSc2nc(-c3ccncc3)ccc2C#N)OC(N)=C(C#N)C1c1cccnc1 (stereo not shown) | 6.5 |
| CCOC(=O)N1CCC(n2c(SCC(=O)c3ccccc3)nc3ccsc3c2=O)CC1 | 8.06 |
| Cc1ccc(C)c(NC(=O)NNC(=O)c2cc3occc3[nH]2)c1 | 17.4 |
| COc1ccc(N2C(=O)NC(NS(=O)(=O)c3ccc(NC(C)=O)cc3)(C(F)(F)F)C2=O)cc1 (stereo not shown) | 11.6 |
| O=C(CS(=O)(=O)c1ccc(F)cc1)NCc1ccccc1 | 25 |
| CCc1ccc(CN2CCC(C(=O)Nc3cccc(-c4nnc(C)s4)c3)CC2)o1 | -4.56 |
| CCCc1cc(=O)[nH]c(SCCN2C(=O)c3ccccc3C2=O)n1 | 3.36 |
| O=C(c1cccc(Br)c1)N1CCN(S(=O)(=O)N2CCCCC2)CC1 | 8.38 |
| CC1CCCCN1Cc1c(C#N)c2ccccc2n1C (stereo not shown) | 9.49 |
| CC(=O)N1CCN(Cc2nc3cc(Cl)ccc3c(=O)[nH]2)CC1 | 12.5 |
| O=C(CSc1nnc(CCCOc2ccc(Cl)cc2Cl)o1)Nc1ccc(C(=O)O)cc1 | 4.6 |
| Fc1ccccc1Oc1nc(-c2ccncc2)nc2ccccc12 | 16.8 |
| Cc1[nH]c2ccccc2c(=O)c1CN1CCCCCC1 | -1.52 |
| Cc1ccccc1OCCCC(=O)Nc1ccc(N2CCOCC2)cc1 | 8.06 |
| C[C@@H](NC(=O)[C@@H]1Cc2ccccc2CN1)C(=O)Nc1ccc2c(c1)OCO2 | 4.54 |
| NC(=O)c1nsc(C(=O)N(CC(=O)NC2CCCCC2)c2ccc(Cl)cc2)c1N | 7.91 |
| O=C(CCc1nc(-c2ccccc2Cl)no1)NCc1ccco1 | 1.15 |
| CCN(C(=O)Cn1nc(C(=O)O)c2ccccc2c1=O)C1CCCCC1 | 5.03 |
| CCCCC(=O)Nc1cccc(NC(=O)c2cccc(Br)c2)c1 | 7.86 |
| CCN1C(=O)[C@H]2[C@@H](c3ccc(-c4ccc(F)cc4)cc3)N3CCCC[C@@]3(C(=O)OC)[C@H]2C1=O.O=C(O)C(F)(F)F | 16.8 |
| CC(C)Cc1nc(SCC(=O)N2CC(C)OC(C)C2)c2c(=O)n(C)c(=O)n(C)c2n1 (stereo not shown) | 12.3 |
| O=C(NCCO)C1CCN(C(=O)c2ccc(-c3ccccc3)cc2)CC1 | 12.7 |
| COc1ccccc1N1CCN(CC(=O)NC(=O)NCc2ccco2)CC1 | 3.08 |
| CSc1nnc(-c2nnc(SC)n2-c2ccccc2)n1-c1ccccc1 | -9.26 |

Reference: publication PMC4336329 (PLoS ONE, 2015)
